The values below come from the RNAGym collection of RNA variant scans (doi:10.7554/elife.90254).

Sequences and labels used below:
B1: LINE1-mini (parent)
chain: GGCAGAGCUCAACACAGCGUGGCAAAGUGGCUGUGGCUAGACUGCC

The source gives no read counts; variants with many changes may rest on few reads.

This series covers variants of B1. As to the kind of experiment: self-cleavage, relative activity (ratio to wild type); higher = more cleavage; in vitro, sequencing; the parent is a self-cleaving ribozyme.
With GGCAGAGCUAAACACAGCGUGCCAAAGUGGCUGUGUCUAGACUGCC [C10A G22C G36U], the self-cleavage was 0.02.

GGCAGAGCUAAACACAGCGUCCCAAAGUGGCUGUGGCUAGACUGAC [C10A G21C G22C C45A]: the self-cleavage came out at 0.01.

Take GGCAGAGCUAAACACAGCCUGGCAACGUGGCUGUGGCUAGACUGCC [C10A G19C A26C]: the self-cleavage stood at 0.04.

Consider GGCAGAGCUAAACACAGCGUCUCAAAGUGGCUGUGGUUAGACUGCC [C10A G21C G22U C37U], for which the self-cleavage is 0.03.

On to GGCAGAGCUAAACACAGCCUGACAAAGUGGCUGUGGCUAGACUGCA [C10A G19C G22A C46A], for which the self-cleavage is 0.04.

With GGCAGAGCUAAACACAGCGUAGCAAAGUGCCUGUGGCUAAACUGCC [C10A G21A G30C G40A], the self-cleavage was determined as 0.

Turning to GGCAGAGCUAAACACAUCGUGGCAAAGUGGCUGCGGCUAGACUUCC [C10A G17U U34C G44U], the self-cleavage was 0.01.

With GGCAGAGCUAAACACAGCAUAGCAAAGUGGCUGUGGCUAGACUGCC [C10A G19A G21A], the self-cleavage was 0.86.

On to GGCAGAGCUAAACACAGCAUUGCAAAGUGGCUGUGGCUAGACUGCC [C10A G19A G21U], for which the self-cleavage was 0.09.

With GGCAGAGCUAAACACAGCGUGCCAAAGAAGCUGUGGCUAGACUGCC [C10A G22C U28A G29A], the self-cleavage is 0.01.

Consider GGCAGAGCUAAACACAGCGUGCCAAACUGGCUGUGGCUAGACUGCC [C10A G22C G27C], for which the self-cleavage was determined as 0.

Consider GGCAGAGCUAAACACAGCGUGUCAAAGUGGGUGUGGCUAGACUGCC [C10A G22U C31G], for which the self-cleavage was determined as 0.05.

Take GGCAGAGCUAAACACAGCCUGGCAAAGUGGCUGUGGAUAUACUGCC [C10A G19C C37A G40U]: the self-cleavage is 0.01.

Take GGCAGAGCUAAACACAGCGUGUUAAAGUGGCUGUGGCUAGACUGCC [C10A G22U C23U]: the self-cleavage was determined as 0.03.

GGCAGAGCUAAACACAGCGUGCCAAAGUGGGUGUGGCUAGACUGCC [C10A G22C C31G]: the self-cleavage came to 0.02.

In the case of GGCAGAGCUAAACACAGCGUCGCAUGGUGGCUGUGGCUAGACUGCC [C10A G21C A25U A26G], the self-cleavage came out at 0.02.

Consider GGCAGAGCUAAACACAGCGUCACAAAGUGCCUGUGGCUAGACUGCC [C10A G21C G22A G30C], for which the self-cleavage came to 0.07.

As to GGCAGAGCUAAACACAGCUUGGCAAAGUGGCUCUGGCUAUACUGCU [C10A G19U G33C G40U C46U], the self-cleavage is 0.03.

As for GGCAGAGCUAAACACAGCUCGGCAAAGUGGCUGUGGCUAGACUGCC [C10A G19U U20C], the self-cleavage was found to be 0.04.

Consider GGCAGAGCUAAACACAGCGUGCCAAUGAGGCUGUGGCUGGACUGCC [C10A G22C A26U U28A A39G], for which the self-cleavage was 0.01.

Turning to GGCAGAGCUAAACACAGCGUAGAAAAGAGGCUGUGGCUAGACUGCC [C10A G21A C23A U28A], the self-cleavage was found to be 0.01.

For GGCAGAGCUAAACACAGCCUGGCAAAGUAGCUGUGGCUAGACUGCC [C10A G19C G29A], the self-cleavage was 0.02.

As to GGCAGAGCUAAACACAGCCUGGCAAAGUGGCUUUGGCUAGACUGAC [C10A G19C G33U C45A], the self-cleavage is 0.

For GGCAGAGCUAAACACAGCGUUGCAAAGUGGCUGUCCCUAGCCUGCC [C10A G21U G35C G36C A41C], the self-cleavage was determined as 0.01.

Consider GGCAGAGCUAAACACAGCGUUGGAAAGUGGCUGUGGAUAGACUGCC [C10A G21U C23G C37A], for which the self-cleavage was 0.01.

With GGCAGAGCUAAACACAGCGUAGGAAAGUGGCUGUGGCUAGACUGCC [C10A G21A C23G], the self-cleavage was 0.03.

Take GGCAGAGCUAAACACAGCGUUUCCAAGUGGGUGUGGCUAGACGACC [C10A G21U G22U A24C C31G U43G G44A]: the self-cleavage was 0.02.

As for GGCAGAGCUAAACACAGCGUCGCAAACUGGCUGUGGCUAGACUGCC [C10A G21C G27C], the self-cleavage was determined as 0.02.

On to GGCAGAGCUAAACACAGCGUCUCAAAGUGGCUGUGGCUAGACUGCC [C10A G21C G22U], for which the self-cleavage worked out at 0.07.

On to GGCAGAGCUAAACACAGCCUUGCAAAGUGGCUGUGGCUAGACUGCC [C10A G19C G21U], for which the self-cleavage was found to be 0.

Turning to GGCAGAGCUAAACACAGCCUGGCAAAGCCGCUGUGGCUAGACUGCC [C10A G19C U28C G29C], the self-cleavage amounted to 0.01.

GGCAGAGCUAAACACAGCGUGCCAAUGUGGCUGUGGCUAGACUGCC [C10A G22C A26U]: the self-cleavage amounted to 0.01.

GGCAGAGCUAAACACAGCUUGGCAAAGUGGCGGUGGCUAGACUGGC [C10A G19U U32G C45G]: the self-cleavage worked out at 0.04.

Consider GGCAGAGCUAAACACAGCGUAGCAAAGUGGCUGUGGCUAGAAUGCC [C10A G21A C42A], for which the self-cleavage came to 0.13.

For GGCAGAGCUAAACACAGCUUAGCAAAGUGGCUGUGGCUGGACUGUC [C10A G19U G21A A39G C45U], the self-cleavage was 0.09.

As for GGCAGAGCUAAACACAGCAUGGUAAAGUGGCUGUGACUAGACUGCC [C10A G19A C23U G36A], the self-cleavage stood at 0.01.

GGCAGAGCUAAACACAGCGUGUCUAAGUGGCUGUUGCUAGACUGCC [C10A G22U A24U G35U]: the self-cleavage was found to be 0.01.

With GGCAGAGCUAAACACAGCAUGGCUAAGUGGCUGUGGCUAGACUGCC [C10A G19A A24U], the self-cleavage is 0.33.

As to GGCAGAGCUAAACACAGCGUGACAAAGUGGCUGUGGUUAGACUGCC [C10A G22A C37U], the self-cleavage stood at 0.02.

Take GGCAGAGCUAAACACAGCGUCGCAAAGUGGCUGUGGCUAAACUGCC [C10A G21C G40A]: the self-cleavage was found to be 0.02.

For the variant GGCAGAGCUAAACACAGCGUUGCAAAGGGGCUGUGGCUAGACUGCC [C10A G21U U28G], the self-cleavage worked out at 0.06.

For GGCAGAGCUAAACACAGCGUAGCACAGUGGCUGUGCCUAGACUGCC [C10A G21A A25C G36C], the self-cleavage was found to be 0.01.

As to GGCAGAGCUAAACACAGCGUAGCAAAGUGGCUGUGGCUAGUCUGCC [C10A G21A A41U], the self-cleavage amounted to 0.04.

In the case of GGCAGAGCUAAACACAGCGUAGCAAAGUGGCUGUGGCUAGGCUGCC [C10A G21A A41G], the self-cleavage was 0.03.

GGCAGAGCUAAACACAGCUUGGCAAAGGGGCUGAGGCUAGACUGCC [C10A G19U U28G U34A]: the self-cleavage was found to be 0.03.

In the case of GGCAGAGCUAAACACAGCGUAGCGUAGUGGCUGUGGCUAGACUGCU [C10A G21A A24G A25U C46U], the self-cleavage is 0.03.

Take GGCAGAGCUAAACACAGCGUUGGAAAGUGACUGUGGCUAGACUGCC [C10A G21U C23G G30A]: the self-cleavage was found to be 0.03.

As for GGCAGAGCUAAACACAGCAUGGCAAUGUGGCUGUGGCUAGACUGCC [C10A G19A A26U], the self-cleavage turned out to be 0.07.

With GGCAGAGCUAAACACAGCGUUGCAAAGUGGCUGUGGCUGGAAUGCC [C10A G21U A39G C42A], the self-cleavage worked out at 0.06.

With GGCAGAGCUAAACACAGCCUGGCAAAGUGGCUAUGGAUAGACUGCC [C10A G19C G33A C37A], the self-cleavage turned out to be 0.01.

As for GGCAGAGCUAAACACAGCGUAGCGAAGUGGCUGUGGCUAGACUGCC [C10A G21A A24G], the self-cleavage was found to be 0.35.

Consider GGCAGAGCUAAACACAGCUUGUCAAAGUGGCUGUGCUUAGACUGCC [C10A G19U G22U G36C C37U], for which the self-cleavage is 0.03.

GGCAGAGCUAAACACAGCAUGGCAUAGUGGCUGUGGCUAGACUGCC [C10A G19A A25U]: the self-cleavage amounted to 0.06.

On to GGCAGAGCUAAACACAGCGUUGCCAAGAGGAUGUGGCUAGACUGCC [C10A G21U A24C U28A C31A], for which the self-cleavage was 0.03.

Consider GGCAGAGCUAAACACAGCCUUGCAAAGUGGCAGUGGCUAGACUGCC [C10A G19C G21U U32A], for which the self-cleavage amounted to 0.01.

As to GGCAGAGCUAAACACAGCGUCUCAAAGUAGCUGUGGCUAGACUGCC [C10A G21C G22U G29A], the self-cleavage was determined as 0.
